{"source": "paper PMC10726135", "note": "Some of the results follow. At the low end of the ranking the order means little. The protein was read in a cell extract, so binding may be indirect."}
{"target": "T1, HNF4alpha8 (COS-7 nuclear extract) (UniProt P41235-5)", "T1 sequence": "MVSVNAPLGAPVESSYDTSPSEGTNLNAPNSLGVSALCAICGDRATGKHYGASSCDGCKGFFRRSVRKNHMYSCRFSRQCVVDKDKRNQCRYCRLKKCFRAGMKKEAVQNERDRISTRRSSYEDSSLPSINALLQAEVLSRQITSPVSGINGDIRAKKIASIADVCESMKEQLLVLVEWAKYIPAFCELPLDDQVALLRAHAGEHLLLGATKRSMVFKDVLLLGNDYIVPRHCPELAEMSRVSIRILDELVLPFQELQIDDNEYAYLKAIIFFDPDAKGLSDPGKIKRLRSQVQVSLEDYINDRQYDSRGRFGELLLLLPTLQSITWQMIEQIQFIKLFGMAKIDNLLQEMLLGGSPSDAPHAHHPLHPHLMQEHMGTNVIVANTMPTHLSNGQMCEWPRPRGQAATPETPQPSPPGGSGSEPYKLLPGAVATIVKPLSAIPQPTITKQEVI", "assay": "protein-binding microarray", "details": "COS-7 nuclear extract on double-stranded Agilent 4x180k PBM; binding buffer, salt, pH and temperature not given; high values mean tight binding; double strand, one strand shown; sequences stand for … in …GCCTAGGGAGATTAGAGTATCGGTCGA"}
{"sequence": "AGGAGGGAGGCAGGGAGACAACCTGGGTGT", "binding signal (log2 normalized intensity)": -1.35}
{"sequence": "ATTTGTCTCTGCTGGGCAGAGGGACAACTG", "binding signal (log2 normalized intensity)": 0.687}
{"sequence": "TGATTTAATACGATATTAATGGTGACCCCT", "binding signal (log2 normalized intensity)": 6}
{"sequence": "GATTTGACTGGAATGTCAAAGGGACAGCAC", "binding signal (log2 normalized intensity)": 0.375}
{"sequence": "CCCAGCTGAGATTCAGAATAGTTAAGTAAC", "binding signal (log2 normalized intensity)": -1.35}
{"sequence": "AACACTGACAGATTCCTGCTAACAGATAAA", "binding signal (log2 normalized intensity)": -1.3}
{"sequence": "GAGGTGGGCCCAGGGTTCTCTGTGACCTTT", "binding signal (log2 normalized intensity)": 7.62}
{"sequence": "GTCAGCTTCACTGATAGCGAGTTATCTGCA", "binding signal (log2 normalized intensity)": -1.03}
{"sequence": "GAAGGCCCCCAGGTAGCTGCCAATGCAAAT", "binding signal (log2 normalized intensity)": 2.26}
{"sequence": "TTCCTTTTTTGGTTCCCCTTCCCCCAACAG", "binding signal (log2 normalized intensity)": 4.89}
{"sequence": "TGTGGGCAAATAGGATTAGGAAACCTGGTA", "binding signal (log2 normalized intensity)": -1.35}
{"sequence": "GCCTTGCACACTCGCCTGGCTCCCCACGTG", "binding signal (log2 normalized intensity)": -1.47}
{"sequence": "GAAGCTTAGAGAGAGAAATTGCTTAAGTGC", "binding signal (log2 normalized intensity)": -1.33}
{"sequence": "GGAAAGGGCACTGATAACCTGCATTTGAAA", "binding signal (log2 normalized intensity)": -1.18}
{"sequence": "GCTTGTCCTTTTGACCACAGTTATCTCCCC", "binding signal (log2 normalized intensity)": 3.02}
{"sequence": "ATGATTATGCCTCTGTGACCTATAATCAGA", "binding signal (log2 normalized intensity)": 3.21}
{"sequence": "TCTAGCATCCCTCTCTTGCTGGGCCCCCAG", "binding signal (log2 normalized intensity)": 2.16}
{"sequence": "ATTGCCTTTCTCTGTGTGTATGTGTGTGTA", "binding signal (log2 normalized intensity)": 3.02}
{"sequence": "CTGCCACTTATTGTGTTATGTACTTAGTGT", "binding signal (log2 normalized intensity)": 2.25}
{"sequence": "GACCTCACATTGTAGCTAAAATGTTAATGA", "binding signal (log2 normalized intensity)": 0.8}
{"sequence": "GAAATGTAGTTCCGGAGAACACGGAGTCCT", "binding signal (log2 normalized intensity)": -0.943}
{"sequence": "CTGTGACACCCTGGTTGACACTCGAGGATC", "binding signal (log2 normalized intensity)": -0.244}
{"sequence": "CTTGGATTTTCTCATCCCAGGGATAATGAT", "binding signal (log2 normalized intensity)": -0.852}
{"sequence": "TTCCATGTCCAAAGGTCTTCATGAGCAATA", "binding signal (log2 normalized intensity)": 3.52}
{"sequence": "TTAGCCTTTGAACCCCACACCTCCCTTGCA", "binding signal (log2 normalized intensity)": 4.29}
{"sequence": "CGGTTCCCAATAAGTTCCTCATTTTCATGT", "binding signal (log2 normalized intensity)": 1.15}
{"sequence": "GCACAGCTTATCACTGGTGATGTGAACCTC", "binding signal (log2 normalized intensity)": 2.8}
{"sequence": "AACCACCAGATAGAGCTTTTGAGGGTGACC", "binding signal (log2 normalized intensity)": 2.06}
{"sequence": "TCAAAGCCCAACCAGGATAGGGAGGGGTAA", "binding signal (log2 normalized intensity)": -1.32}
{"sequence": "GCCTGAGCTATCTGTTTGAGGTTCACTGGG", "binding signal (log2 normalized intensity)": 1.81}
{"sequence": "TCAAAGGGCATTACTTGCTGGAGAAAGAGG", "binding signal (log2 normalized intensity)": -1.1}
{"sequence": "ATCCCGTGGACTTTGCCTGCCCATCCCGTG", "binding signal (log2 normalized intensity)": 4.23}
{"sequence": "TATCTCTGTGGATAGCTCAGGGATTAACGA", "binding signal (log2 normalized intensity)": -1.02}
{"sequence": "TGCTGCAATTTAAGCTTACTTCCTCTCCTA", "binding signal (log2 normalized intensity)": -1.33}
{"sequence": "GCACTGATAAGCGTATTTCAACCTTTGATC", "binding signal (log2 normalized intensity)": 8.45}
{"sequence": "ATGATAAGTTGGAATTTGGGTGATCCTGGT", "binding signal (log2 normalized intensity)": 1.44}
{"sequence": "CTTTGGCCTTTTGTGAGATATGGACTGTAG", "binding signal (log2 normalized intensity)": 3.11}
{"sequence": "TACAGAGCTGAAGTTTGCAAACAGTAAAGA", "binding signal (log2 normalized intensity)": -0.901}
{"sequence": "TGTCTCTTCTTGTACCTCTGGTGATTACCA", "binding signal (log2 normalized intensity)": 0.864}
{"sequence": "TGGAAGGCTGTATGTACACTTGCCCTCTCA", "binding signal (log2 normalized intensity)": 3.73}
{"sequence": "TTTGAAGTCTGGTGGCAAGTACCCTTTATC", "binding signal (log2 normalized intensity)": 1.93}
{"sequence": "GGGCTGGTTGGCACGCTTAGGGAACAAAGG", "binding signal (log2 normalized intensity)": 1.87}
{"sequence": "ATACACACACACCCCTCCACTGGACAGCAG", "binding signal (log2 normalized intensity)": 2.5}
{"sequence": "ATGAAGCTAAAAGAAGTCCAAGGACTTATC", "binding signal (log2 normalized intensity)": -1.26}
{"sequence": "GGAAATACCGACAACGCCAAGGACCGCCAA", "binding signal (log2 normalized intensity)": -1.24}
{"sequence": "AGCCTTATCTTCCAGCCCTGTCTCTCAGGT", "binding signal (log2 normalized intensity)": -0.0104}
{"sequence": "TCCTCCTATGTCAATAGAGCATGAGAACTT", "binding signal (log2 normalized intensity)": 0.343}
{"sequence": "GGTCACACAGCTAAGAGCCGCAGAGCTAAT", "binding signal (log2 normalized intensity)": -1}
{"sequence": "GGTCATCTGAGGGAAAAGATAAGATTATCT", "binding signal (log2 normalized intensity)": -1.25}
{"sequence": "CTAAGCGATAAGGAGGAAGGACACTTAGAG", "binding signal (log2 normalized intensity)": -1.34}
{"sequence": "CCGCGCCCCGCCCCCAGTGCACCTTAATAA", "binding signal (log2 normalized intensity)": 5.45}
{"sequence": "AAACACATGCAATCACACTAATCTGTCAGA", "binding signal (log2 normalized intensity)": -0.959}
{"sequence": "TTTCTTCTCTGTAGGTAAACAGTGACTCAT", "binding signal (log2 normalized intensity)": 1.73}
{"sequence": "GTTCTTATTTGCTGAGGAAGACTTCATTCA", "binding signal (log2 normalized intensity)": -1.28}
{"sequence": "GATAAGAAGACTCCAGGGGACTGCCTCTTC", "binding signal (log2 normalized intensity)": -1.35}
{"sequence": "TCACTCAGCAATAAATACCAAAGCCATGGC", "binding signal (log2 normalized intensity)": -1.09}
{"sequence": "ATAGCCCAAGTTCAAAGGTTATCTGCTGGC", "binding signal (log2 normalized intensity)": 4.87}
{"sequence": "TTCACTGTTTGCTTTTCTTATTTACCGAAA", "binding signal (log2 normalized intensity)": 0.799}
{"sequence": "AATTTGAACCAAGATCTGTGAAAGAAAAGT", "binding signal (log2 normalized intensity)": -0.147}
{"sequence": "GCACCCGGGCAGCCTGTGGCCAGGCTGCGT", "binding signal (log2 normalized intensity)": -1.29}
{"sequence": "TCTGATTTCCCCGTCCCAAGCTGAGGTCTG", "binding signal (log2 normalized intensity)": 2.74}
{"sequence": "CTGTTAACTTCTTATGCATAGATGTTTAGC", "binding signal (log2 normalized intensity)": 0.508}
{"sequence": "TTGGGGCCCACAGAGTCCAGAGGTCACTTT", "binding signal (log2 normalized intensity)": 6.63}
{"sequence": "AAGACCGGTATTTGAGATATTTTTCAGACC", "binding signal (log2 normalized intensity)": 0.389}
{"sequence": "ACTCTTATCAGACAGGATATTTTGAGGGCT", "binding signal (log2 normalized intensity)": -1.23}
{"sequence": "CAAGGGCTTACAACTCTAAGGGGGAAAGTC", "binding signal (log2 normalized intensity)": -1.29}
{"sequence": "CACCTGCCCTCAGGGAGCTCCAGCACTGGG", "binding signal (log2 normalized intensity)": -1.18}
{"sequence": "ATATTCACTATCTGATCCTTTACAGAGATA", "binding signal (log2 normalized intensity)": 0.68}
{"sequence": "CGTCGCTGAGTGGAGGCCCAGTAAGTCCCA", "binding signal (log2 normalized intensity)": -1.43}
{"sequence": "TTATCTGGGCCAGGTATTTGGACTTTTTGT", "binding signal (log2 normalized intensity)": 4.57}
{"sequence": "GATCTGGGTGTGCCATTCTTCCAGTTGTGT", "binding signal (log2 normalized intensity)": 1.69}
{"sequence": "GTTGAGGAGTTTGTACTTTATCCTACAAGG", "binding signal (log2 normalized intensity)": 3.09}
{"sequence": "TACTGGGGATGGACTTTGGCCCTCAGCCCA", "binding signal (log2 normalized intensity)": 9.48}
{"sequence": "CCTTATCAGAAGGAAAGTCTCCCTCCCTTT", "binding signal (log2 normalized intensity)": 1.72}
{"sequence": "GATCATCTTCACCTGCCCTGAGTCCAGCCT", "binding signal (log2 normalized intensity)": 1.83}
{"sequence": "AAAATATGGACTTTGGAATTAAGAAAAGCT", "binding signal (log2 normalized intensity)": 5.77}
{"sequence": "TGGATCTTGAAGCAGAAAACCACTGTGCTC", "binding signal (log2 normalized intensity)": -0.751}
{"sequence": "AGGAGGGACTGAACAGATATTGGCCAAAGG", "binding signal (log2 normalized intensity)": 1.11}
{"sequence": "GACCTTGGAATGTCAAGATTGAGACATTCA", "binding signal (log2 normalized intensity)": -0.127}
{"sequence": "GAAAAGGCCTGACCTTTGCCCTCTGGCCCT", "binding signal (log2 normalized intensity)": 9.29}
{"sequence": "TCCCCCTGCCCTTCGTCCTGAGCAGTCCCT", "binding signal (log2 normalized intensity)": 2.79}
{"sequence": "CTAGGGGGCACCTCTGAAAGCACTTGTAGG", "binding signal (log2 normalized intensity)": -1.26}
{"sequence": "GCCTTCCCCGCCCGCAGCCCAGTCTTGGCC", "binding signal (log2 normalized intensity)": 3.6}
{"sequence": "TAAAAATTAGCTGAACATGGTGACACACAC", "binding signal (log2 normalized intensity)": -0.563}
{"sequence": "GGAATTCTTCACCAAATCATTTCACTTCCT", "binding signal (log2 normalized intensity)": -1.17}
{"sequence": "GACCTTTGACCTTTATACCTGTACGTTACT", "binding signal (log2 normalized intensity)": 7.64}
{"sequence": "CCACCCTGGCAGAGGAAAAAGTCCCTGGTC", "binding signal (log2 normalized intensity)": -0.806}
{"sequence": "AGTCTGGAAGTTGAATTCCTTCTTCTTCTG", "binding signal (log2 normalized intensity)": 0.0887}
{"sequence": "ATTCAACAGAGCTATTTTAGGGTAAAGATC", "binding signal (log2 normalized intensity)": 0.885}
{"sequence": "CACCAGCTTCTTCTCTTTGACAAAAAATGA", "binding signal (log2 normalized intensity)": 0.27}
{"sequence": "AGATAAGGCTAGTAACACTCACATTCCACG", "binding signal (log2 normalized intensity)": -1.27}
{"sequence": "ATTTATTACAGAGAGGGGGAGTGAAGGTTA", "binding signal (log2 normalized intensity)": 1.17}
{"sequence": "TAGCCTATCAGAAGAATCTGTATCAGCCTG", "binding signal (log2 normalized intensity)": -0.8}
